Experimental data reported in the supplement of paper PMC4967469.
The IC50 comes from the fitted curve, where viability falls to half of the control; a limit (>, <) means that the fit lies beyond the doses tested. AUC, from the same fit, is the share of area under the viability curve across the 256-fold dose range: 1 means no effect, lower means more sensitive. For part of these data: A top dose marked as inferred was calculated from the reported fits. For part of these data: Drugs with an entry number were screened twice under separate entries, and the two screens often disagree.

Columns and labels:
Experiment in all cases: Viability of human cancer cell lines after 72 h of drug (GDSC screen)
CHIR-99021 = compound: Cc1cnc(-c2cnc(NCCNc3ccc(C#N)cn3)nc2-c2ccc(Cl)cc2Cl)[nH]1 [CHIR-99021]; conditions: top dose 10 µM; screen: GDSC drug entry 1241; top dose inferred
Protocol: (§1)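 Human cancer cell lines in 384-well plates, medium with 10% serum, drug for 72 h over a 256-fold dose range (nine 2-fold or five 4-fold steps up to the top dose). Adherent lines were fixed and stained with the nucleic acid dye Syto60, suspension lines read with resazurin; signal relative to control wells, capped at 0 and 100%. One two-parameter sigmoid per drug and line, fitted in a mixed model over all curves with the slope shared within a line.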

ABT-888 = compound: C[C@]1(c2nc3c(C(N)=O)cccc3[nH]2)CCCN1 [ABT-888]; conditions: top dose 5 µM; top dose inferred
Protocol: as §1

ABT-869 = compound: Cc1ccc(F)c(NC(=O)Nc2ccc(-c3cccc4[nH]nc(N)c34)cc2)c1 [ABT-869]; conditions: top dose 1.024 µM; top dose inferred
Protocol: as §1

KU-55933 = compound: O=c1cc(-c2cccc3c2Sc2ccccc2S3)oc(N2CCOCC2)c1 [KU-55933]; conditions: top dose 10 µM
Protocol: as §1

MPS-1-IN-1 = compound: COc1cc(N2CCC(O)CC2)ccc1Nc1cc(Nc2ccccc2S(=O)(=O)C(C)C)c2cc[nH]c2n1 [MPS-1-IN-1]; conditions: top dose 20 µM; top dose inferred
Protocol: as §1

Cytarabine = compound: Nc1ccn([C@@H]2O[C@H](CO)[C@@H](O)[C@@H]2O)c(=O)n1 [Cytarabine]; conditions: top dose 2 µM
Protocol: as §1

Zibotentan = compound: COc1nc(C)cnc1NS(=O)(=O)c1cccnc1-c1ccc(-c2nnco2)cc1 [Zibotentan]; conditions: top dose 20 µM; top dose inferred
Protocol: as §1

(5Z)-7-Oxozeaenol = compound: COc1cc(O)c2c(c1)/C=C/C[C@H](O)[C@H](O)C(=O)/C=C\C[C@H](C)OC2=O [(5Z)-7-Oxozeaenol]; conditions: top dose 10 µM; top dose inferred
Protocol: as §1

CP466722 = compound: COc1cc2ncnc(-n3nc(-c4ccccn4)nc3N)c2cc1OC [CP466722]; conditions: top dose 16 µM; top dose inferred
Protocol: as §1

QL-X-138 = compound: C=CC(=O)Nc1cc(-n2c(=O)ccc3cnc4ccc(-c5cn[nH]c5)cc4c32)ccc1C [QL-X-138]; conditions: top dose 10.24 µM; top dose inferred
Protocol: as §1

GSK269962A = compound: CCn1c(-c2nonc2N)nc2cnc(Oc3cccc(NC(=O)c4ccc(OCCN5CCOCC5)cc4)c3)cc21 [GSK269962A]; conditions: top dose 5 µM; screen: GDSC drug entry 1192; top dose inferred
Protocol: as §1

Cell Line | AUC (CHIR-99021) | IC50 (CHIR-99021) [µM] | AUC (ABT-888) | IC50 (ABT-888) [µM] | AUC (ABT-869) | IC50 (ABT-869) [µM] | AUC (KU-55933) | IC50 (KU-55933) [µM] | AUC (MPS-1-IN-1) | IC50 (MPS-1-IN-1) [µM] | AUC (Cytarabine) | IC50 (Cytarabine) [µM] | AUC (Zibotentan) | IC50 (Zibotentan) [µM] | AUC ((5Z)-7-Oxozeaenol) | IC50 ((5Z)-7-Oxozeaenol) [µM] | AUC (CP466722) | IC50 (CP466722) [µM] | AUC (QL-X-138) | IC50 (QL-X-138) [µM] | AUC (GSK269962A) | IC50 (GSK269962A) [µM]
OACM5-1 (oesophagus, semi-adherent) | 0.973 | > 10 | 0.985 | > 5 | 0.972 | > 1.02 | 0.964 | > 10 | 0.734 | 6.37 | 0.958 | > 2 | 0.971 | > 20 | 0.89 | > 10 | 0.622 | 2.27 | 0.578 | 1.08 | 0.966 | > 5
OACp4C (oesophagus, adherent) | 0.971 | > 10 | 0.979 | > 5 | 0.964 | > 1.02 | 0.956 | > 10 | 0.633 | 3.14 | 0.734 | 0.674 | 0.974 | > 20 | 0.808 | 6.51 | 0.721 | 4.87 | 0.628 | 1.55 | 0.824 | 3.8
OC-314 (ovary, adherent) | 0.902 | 9.84 | 0.991 | > 5 | 0.989 | > 1.02 | 0.954 | > 10 | 0.976 | > 20 | 0.851 | 1.21 | 0.99 | > 20 | 0.603 | 1.14 | 0.891 | 14 | 0.659 | 1.65 | 0.835 | 2.65
OV-7 (ovary, adherent) | 0.828 | > 10 | 0.923 | > 5 | 0.971 | > 1.02 | 0.851 | > 10 | 0.934 | > 20 | 0.791 | 1.47 | 0.971 | > 20 | 0.627 | 1.68 | 0.709 | 5.35 | 0.784 | 7.02 | 0.476 | 0.26
OV-17R (ovary, adherent) | 0.952 | > 10 | 0.976 | > 5 | 0.964 | > 1.02 | 0.934 | > 10 | 0.908 | > 20 | 0.701 | 0.584 | 0.973 | > 20 | 0.745 | 4.28 | 0.811 | 13 | 0.702 | 3.02 | 0.972 | > 5
OVCA420 (ovary, adherent) | 0.979 | > 10 | 0.982 | > 5 | 0.979 | > 1.02 | 0.944 | > 10 | 0.913 | > 20 | 0.868 | > 2 | 0.982 | > 20 | 0.853 | > 10 | 0.951 | > 16 | 0.964 | > 10.2 | 0.855 | > 5
OVK-18 (ovary, adherent) | 0.984 | > 10 | 0.958 | > 5 | 0.983 | > 1.02 | 0.888 | > 10 | 0.957 | > 20 | 0.517 | 0.14 | 0.983 | > 20 | 0.65 | 1.71 | 0.922 | > 16 | 0.955 | > 10.2 | 0.87 | > 5
PEO1 (ovary, adherent) | 0.975 | > 10 | 0.987 | > 5 | 0.982 | > 1.02 | 0.964 | > 10 | 0.914 | > 20 | 0.551 | 0.174 | 0.98 | > 20 | 0.43 | 0.398 | 0.76 | 5.84 | 0.987 | > 10.2 | 0.851 | 4.07
QGP-1 (pancreas, adherent) | 0.969 | > 10 | 0.959 | > 5 | 0.972 | > 1.02 | 0.97 | > 10 | 0.829 | > 20 | 0.952 | > 2 | 0.967 | > 20 | 0.861 | > 10 | 0.918 | > 16 | 0.723 | 4.14 | 0.903 | > 5
RCC-AB (kidney, adherent) | 0.912 | > 10 | 0.979 | > 5 | 0.973 | > 1.02 | 0.936 | > 10 | 0.907 | > 20 | 0.947 | > 2 | 0.966 | > 20 | 0.556 | 0.932 | 0.721 | 5.23 | 0.447 | 0.44 | 0.953 | > 5
RCC-FG2 (kidney, adherent) | 0.84 | 9.81 | 0.974 | > 5 | 0.974 | > 1.02 | 0.839 | 9.72 | 0.961 | > 20 | 0.648 | 0.36 | 0.981 | > 20 | 0.78 | 5.32 | 0.831 | 14.1 | 0.789 | 5.96 | 0.932 | > 5
RCC-JW (kidney, adherent) | 0.643 | 1.57 | 0.986 | > 5 | 0.966 | > 1.02 | 0.946 | > 10 | 0.983 | > 20 | 0.646 | 0.32 | 0.986 | > 20 | 0.394 | 0.318 | 0.696 | 3.62 | 0.191 | 0.0741 | 0.841 | 3.62
